Reference: the supplement of paper PMC12355420
Where “and” joins values, the source holds several entries; their conditions need not be identical. Equal values may be shown once. Where a name gives a salt, the structure may show the parent alone. The list shows a part of the results. Single values are uncertain, as repeats are few or missing.

These molecules were tested on HeLa VPS33A KO + NLuc-VPS33A R498W (assay: relative mutant VPS33A R498W amount (NanoLuc luminescence) vs DMSO (fraction of DMSO); HeLa model of a glycosaminoglycan (GAG) storage disease; KI is knock-in and KO knock-out; SDC1 is syndecan 1; higher = higher mutant VPS33A level). Settings: 50 µM; 24 h.
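Also: screen of an FDA-approved drug library, NanoLuc luminescence read after lysing the treated cells, taken as a measure of mutant VPS33A protein stability.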

Compound | relative mutant VPS33A R498W amount
CC1=C(C(=O)O)N2C(=O)[C@@H](NC(=O)[C@H](N)c3ccc(O)cc3)[C@H]2SC1 [Cefadroxil (hydrate)] | 1.41
O=C(Nc1cnn2ccc(N3CCC[C@@H]3c3cc(F)ccc3F)nc12)N1CC[C@H](O)C1 | 0.886
C[C@H](C(=O)O)c1cccc(C(=O)c2ccccc2)c1 [(S)-Ketoprofen] | 0.866
CCOC(=O)N1CCC(=C2c3ccc(Cl)cc3CCc3cccnc32)CC1 [Loratadine] | 0.0177
CN1C2CCC1CC(OC(=O)C(O)c1ccccc1)C2 (stereo not given) [Homatropine Bromide] | 0.786
COC(=O)N(C)c1c(N)nc(-c2nn(Cc3ccccc3F)c3ncccc23)nc1N [Riociguat] | 0.943
Cc1ncc([N+](=O)[O-])n1CCO [Metronidazole] | 1.44
COc1c(N2C[C@@H]3CCCN[C@@H]3C2)c(F)cc2c(=O)c(C(=O)O)cn(C3CC3)c12 [Moxifloxacin HCl] | 2.13
CC1(C)[C@H](C(=O)O)N2C(=O)C[C@H]2S1(=O)=O [Sulbactam sodium] | 1.1
CC(C)[N+]1(C)[C@@H]2CC[C@H]1C[C@@H](OC(=O)C(CO)c1ccccc1)C2 (stereo not given in full) [Ipratropium Bromide] | 1.21
CC(C)(C)NC[C@H](O)COc1nsnc1N1CCOCC1 [Timolol Maleate] | 1.3
O=C1CN(/N=C/c2ccc(-c3ccc([N+](=O)[O-])cc3)o2)C(=O)N1 [Dantrolene, sodium salt] | 6.37
O=S(=O)(O)CCS [Mesna] | 0.864
CC(C)CN(C[C@@H](O)[C@H](Cc1ccccc1)NC(=O)O[C@H]1CO[C@H]2OCC[C@H]21)S(=O)(=O)c1ccc(N)cc1 [Darunavir] | 1
CC1(C)[C@H](C(=O)O)N2C(=O)C[C@H]2S1(=O)=O [Sulbactam] | 1.42
CC(C)(O/N=C(\C(=O)N[C@@H]1C(=O)N2C(C(=O)[O-])=C(C[n+]3ccccc3)CS[C@H]12)c1csc(N)n1)C(=O)O [Ceftazidime] | 1.87 and 1.67
Cc1occc(=O)c1O [3-Hydroxy-2-methyl-4H-pyran-4-one] | 1.36
O=S(=O)(O)c1cc(O)ccc1O [Ethamsylate] | 1.36
Cc1cc(/C=C/C#N)cc(C)c1Nc1ccnc(Nc2ccc(C#N)cc2)n1 [Rilpivirine] | 0.511
O=C1C(=O)c2ccccc2C(O)=C1C1CCC(c2ccc(Cl)cc2)CC1 (stereo not given) [Atovaquone] | 0.506

Compound | relative mutant VPS33A R498W amount
Cc1ccc(C(=O)c2cc(O)c(O)c([N+](=O)[O-])c2)cc1 [Tolcapone] | 1.39
NC(=O)C(c1ccccc1)(c1ccccc1)[C@@H]1CCN(CCc2ccc3c(c2)CCO3)C1 [Darifenacin HBr] | 0.675
Cc1nnc(SCC2=C(C(=O)O)N3C(=O)[C@@H](NC(=O)Cn4cnnn4)[C@H]3SC2)s1 [Cefazolin (sodium salt)] | 1.77
CN[C@@H]1[C@H](O)[C@H](NC)[C@H]2O[C@@]3(O)C(=O)C[C@@H](C)O[C@H]3O[C@@H]2[C@H]1O [Spectinomycin dihydrochloride] | 0.98
Cc1cc(=O)oc2cc(O)ccc12 [4-Methylumbelliferone (4-MU)] | 0.675
CC12CC3CC(C)(C1)CC(N)(C3)C2 [Memantine hydrochloride] | 0.964
O=C1Nc2ccc(Cl)cc2[C@@](C#CC2CC2)(C(F)(F)F)O1 [Efavirenz] | 0.00734
COc1ccc(/C=C\c2cc(OC)c(OC)c(OC)c2)cc1OP(=O)(O)O [Fosbretabulin (Combretastatin A4 Phosphate (CA4P)) Disodium] | 0.612
C#C[C@]1(O)CC[C@H]2[C@@H]3CCc4cc(OC5CCCC5)ccc4[C@H]3CC[C@@]21C [Quinestrol] | 1.09
OC[C@H]1O[C@H](O[C@]2(CCl)O[C@H](CCl)[C@@H](O)[C@@H]2O)[C@H](O)[C@@H](O)[C@H]1Cl [Sucralose] | 1.02
C[C@H](Cc1cc2c(c(C(N)=O)c1)N(CCCO)CC2)NCCOc1ccccc1OCC(F)(F)F [Silodosin] | 0.616
CCCNC(=O)NS(=O)(=O)c1ccc(Cl)cc1 [Chlorpropamide] | 1.26
Nc1c(CC(=O)O)cccc1C(=O)c1ccccc1 [Amfenac Sodium Monohydrate] | 1.01
CC(C(=O)O)c1cccc(C(=O)c2ccccc2)c1 (stereo not given) [Ketoprofen] | 0.859
CC(C)CN(C[C@@H](O)[C@H](Cc1ccccc1)NC(=O)O[C@H]1CO[C@H]2OCC[C@H]21)S(=O)(=O)c1ccc(N)cc1 [Darunavir Ethanolate] | 0.916
CCCC(=O)OCOC(=O)C1=C(C)NC(C)=C(C(=O)OC)C1c1cccc(Cl)c1Cl (stereo not given) [Clevidipine Butyrate] | 0.98
CNS(=O)(=O)Cc1ccc2[nH]cc(CCN(C)C)c2c1 [Sumatriptan Succinate] | 1.1
CCCN[C@H]1CCc2nc(N)sc2C1 [Pramipexole dihydrochloride] | 1.45
CC(=O)Nc1ccccc1 [Acetanilide] | 1.48
Cc1nnc(NS(=O)(=O)c2ccc(N)cc2)s1 [Sulfamethizole] | 1.07
